Source: paper PMC11477271
These are yes or no findings as the source states them, for the method shown. Binding seen in cells or lysates may run through a third protein. Some binding calls cover weakened binding; strength is not graded here.

By UniProt entry, the sequences of proteins in these tests, tags left out. Where a name states a change or a piece, a line headed by the entry shows the natural chain unless it says otherwise. Chains listed by the source or under a name are the forms on record and can include a tag or linker.
UniProt Q8NFD2: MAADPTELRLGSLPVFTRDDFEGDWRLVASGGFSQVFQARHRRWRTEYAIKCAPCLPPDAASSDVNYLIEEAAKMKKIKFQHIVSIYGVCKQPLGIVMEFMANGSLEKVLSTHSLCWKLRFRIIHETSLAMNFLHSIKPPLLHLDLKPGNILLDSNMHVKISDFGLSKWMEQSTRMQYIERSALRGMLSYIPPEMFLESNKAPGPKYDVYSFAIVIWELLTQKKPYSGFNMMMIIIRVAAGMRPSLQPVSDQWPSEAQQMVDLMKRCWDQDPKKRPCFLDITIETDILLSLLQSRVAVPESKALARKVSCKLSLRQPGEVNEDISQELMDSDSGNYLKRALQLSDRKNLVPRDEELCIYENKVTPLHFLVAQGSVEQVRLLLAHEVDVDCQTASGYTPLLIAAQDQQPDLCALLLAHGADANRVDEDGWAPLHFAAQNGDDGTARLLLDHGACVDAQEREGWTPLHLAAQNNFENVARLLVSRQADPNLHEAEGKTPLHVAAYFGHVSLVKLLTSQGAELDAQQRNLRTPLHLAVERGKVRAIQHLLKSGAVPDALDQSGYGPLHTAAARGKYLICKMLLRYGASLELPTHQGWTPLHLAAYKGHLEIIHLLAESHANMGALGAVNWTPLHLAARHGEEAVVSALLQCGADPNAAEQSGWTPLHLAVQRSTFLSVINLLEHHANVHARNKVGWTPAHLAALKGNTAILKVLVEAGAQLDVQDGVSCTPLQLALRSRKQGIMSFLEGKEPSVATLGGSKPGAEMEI
full-length ANKK1^Thr239 (fl-ANKK1^Thr239), transfected in HEK293T (Q8NFD2, form named): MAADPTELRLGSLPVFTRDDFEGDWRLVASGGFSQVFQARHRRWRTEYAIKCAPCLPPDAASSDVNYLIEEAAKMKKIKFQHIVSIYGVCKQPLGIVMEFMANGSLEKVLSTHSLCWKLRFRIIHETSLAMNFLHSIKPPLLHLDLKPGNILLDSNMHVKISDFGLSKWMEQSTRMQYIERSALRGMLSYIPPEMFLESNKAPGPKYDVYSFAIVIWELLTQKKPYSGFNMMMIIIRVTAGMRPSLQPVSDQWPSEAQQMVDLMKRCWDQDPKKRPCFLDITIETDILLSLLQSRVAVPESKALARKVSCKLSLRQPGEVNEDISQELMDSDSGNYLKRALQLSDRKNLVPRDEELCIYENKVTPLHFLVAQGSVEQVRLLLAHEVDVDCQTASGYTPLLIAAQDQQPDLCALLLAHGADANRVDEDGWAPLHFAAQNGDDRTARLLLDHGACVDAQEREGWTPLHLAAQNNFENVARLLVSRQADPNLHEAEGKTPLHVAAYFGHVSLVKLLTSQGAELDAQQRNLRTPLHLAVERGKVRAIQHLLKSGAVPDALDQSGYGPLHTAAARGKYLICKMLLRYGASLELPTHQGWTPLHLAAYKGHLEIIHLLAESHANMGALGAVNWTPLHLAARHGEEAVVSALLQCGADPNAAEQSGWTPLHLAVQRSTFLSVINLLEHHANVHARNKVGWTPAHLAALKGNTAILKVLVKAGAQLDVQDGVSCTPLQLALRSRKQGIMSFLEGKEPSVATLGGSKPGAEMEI
UniProt Q8IW93: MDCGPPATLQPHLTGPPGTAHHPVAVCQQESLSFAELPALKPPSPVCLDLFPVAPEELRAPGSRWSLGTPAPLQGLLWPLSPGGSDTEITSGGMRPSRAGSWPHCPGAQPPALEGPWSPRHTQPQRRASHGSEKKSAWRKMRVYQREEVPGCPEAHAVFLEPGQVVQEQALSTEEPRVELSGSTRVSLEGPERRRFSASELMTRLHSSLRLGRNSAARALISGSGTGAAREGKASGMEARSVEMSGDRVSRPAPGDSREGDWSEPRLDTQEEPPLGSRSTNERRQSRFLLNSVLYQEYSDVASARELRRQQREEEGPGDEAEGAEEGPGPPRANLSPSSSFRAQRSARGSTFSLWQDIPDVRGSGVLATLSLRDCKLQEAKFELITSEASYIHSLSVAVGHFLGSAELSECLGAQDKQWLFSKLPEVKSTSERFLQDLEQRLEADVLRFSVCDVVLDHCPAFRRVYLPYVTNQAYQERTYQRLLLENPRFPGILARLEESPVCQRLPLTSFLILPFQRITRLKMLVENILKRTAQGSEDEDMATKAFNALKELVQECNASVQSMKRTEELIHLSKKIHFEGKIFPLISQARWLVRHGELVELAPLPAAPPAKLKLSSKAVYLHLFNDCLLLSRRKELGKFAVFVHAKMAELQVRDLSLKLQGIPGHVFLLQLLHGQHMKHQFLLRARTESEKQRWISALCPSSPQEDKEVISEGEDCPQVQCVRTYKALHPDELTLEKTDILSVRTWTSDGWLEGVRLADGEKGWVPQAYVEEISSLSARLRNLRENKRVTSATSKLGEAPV
UniProt P61586: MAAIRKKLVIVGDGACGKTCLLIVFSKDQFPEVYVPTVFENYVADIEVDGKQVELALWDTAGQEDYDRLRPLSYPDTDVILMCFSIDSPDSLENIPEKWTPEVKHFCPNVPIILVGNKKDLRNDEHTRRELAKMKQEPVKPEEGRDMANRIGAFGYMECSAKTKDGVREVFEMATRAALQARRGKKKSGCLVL
UniProt P60953: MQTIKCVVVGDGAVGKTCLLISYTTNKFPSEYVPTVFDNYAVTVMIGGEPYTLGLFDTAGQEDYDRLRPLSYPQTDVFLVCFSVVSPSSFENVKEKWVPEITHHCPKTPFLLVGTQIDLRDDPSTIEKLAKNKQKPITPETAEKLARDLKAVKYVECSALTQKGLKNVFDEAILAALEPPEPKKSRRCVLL

Columns and labels:
[1] = molecular target: full-length ANKK1^Thr239 in fusion with V5, stably expressed in SH-SY5Y (scfl-ANKK1^Thr239) (human) (UniProt Q8NFD2); experiment: co-IP; SH-SY5Y lines stably expressing fl-ANKK1^Thr239 after differentiation (Figure S9B,C right)
[2] = molecular target: full-length ANKK1^Thr239 in fusion with V5, stably expressed in SH-SY5Y (scfl-ANKK1^Thr239) (human) (UniProt Q8NFD2); experiment: co-IP; undifferentiated SH-SY5Y lines stably expressing fl-ANKK1^Thr239 or fl-ANKK1^Arg51 (Figure S9A, B left, C left)
[3] = molecular target: full-length ANKK1^Thr239 in fusion with V5, stably expressed in SH-SY5Y (scfl-ANKK1^Thr239) (human) (UniProt Q8NFD2); experiment: proximity ligation; PLA in SH-SY5Y lines with fl-ANKK1^Thr239, undifferentiated and differentiated (Figure S9D–F)
[4] = molecular target: RhoGEF19 (WGEF), endogenous in SH-SY5Y cells (human (endogenous in SH-SY5Y)) (UniProt Q8IW93); experiment: proximity ligation; PLA of endogenous proteins in shMOCK, shANKK1 and shFARP1 knockdown SH-SY5Y lines, undifferentiated and 48 h serum-starved (0% FBS) or RA-treated
[5] = molecular target: full-length ANKK1^Thr239 in fusion with V5, stably expressed in SH-SY5Y (scfl-ANKK1^Thr239) (human) (UniProt Q8NFD2); experiment: co-IP; scMOCK and scfl-ANKK1^Thr239 SH-SY5Y cell lines during proliferation
[6] = molecular target: full-length ANKK1^Thr239 (fl-ANKK1^Thr239), transfected in HEK293T (human) (UniProt Q8NFD2); experiment: co-IP; HEK293T cells transfected with FARP1 and fl-ANKK1^Thr239 constructs

| binding [1] | binding [2] | binding [3] | binding [4] | binding [5] | binding [6] | Molecule |
| --- | --- | --- | --- | --- | --- | --- |
| binds | binds weakly | binds | binds | – | – | RhoA of SH-SY5Y cells (from UniProt P61586 1-193) |
| – | – | – | – | – | binds | FARP1 construct, transfected in HEK293T (protein, UniProt Q9Y4F1 1-1045) MGEIEQRPTPGSRLGAPENSGISTLERGQKPPPTPSGKLVSIKIQMLDDTQEAFEVPQRAPGKVLLDAVCNHLNLVEGDYFGLEFPDHKKITVWLDLLKPIVKQIRRPKHVVVKFVVKFFPPDHTQLQEELTRYLFALQVKQDLAQGRLTCNDTSAALLISHIVQSEIGDFDEALDREHLAKNKYIPQQDALEDKIVEFHHNHIGQTPAESDFQLLEIARRLEMYGIRLHPAKDREGTKINLAVANTGILVFQGFTKINAFNWAKVRKLSFKRKRFLIKLRPDANSAYQDTLEFLMASRDFCKSFWKICVEHHAFFRLFEEPKPKPKPVLFSRGSSFRFSGRTQKQVLDYVKEGGHKKVQFERKHSKIHSIRSLASQPTELNSEVLEQSQQSTSLTFGEGAESPGGQSCRRGKEPKVSAGEPGSHPSPAPRRSPAGNKQADGAASAPTEEEEEVVKDRTQQSKPQPPQPSTGSLTGSPHLSELSVNSQGGVAPANVTLSPNLSPDTKQASPLISPLLNDQACPRTDDEDEGRRKRFPTDKAYFIAKEVSTTERTYLKDLEVITSWFQSTVSKEDAMPEALKSLIFPNFEPLHKFHTNFLKEIEQRLALWEGRSNAQIRDYQRIGDVMLKNIQGMKHLAAHLWKHSEALEALENGIKSSRRLENFCRDFELQKVCYLPLNTFLLRPLHRLMHYKQVLERLCKHHPPSHADFRDCRAALAEITEMVAQLHGTMIKMENFQKLHELKKDLIGIDNLVVPGREFIRLGSLSKLSGKGLQQRMFFLFNDVLLYTSRGLTASNQFKVHGQLPLYGMTIEESEDEWGVPHCLTLRGQRQSIIVAASSRSEMEKWVEDIQMAIDLAEKSSSPAPEFLASSPPDNKSPDEATAADQESEDDLSASRTSLERQAPHRGNTMVHVCWHRNTSVSMVDFSIAVENQLSGNLLRKFKNSNGWQKLWVVFTNFCLFFYKSHQDNHPLASLPLLGYSLTIPSESENIQKDYVFKLHFKSHVYYFRAESEYTFERWMEVIRSATSSASRPHVLSHKESLVY |

Second part, the molecule before the results:

| Molecule | binding [1] | binding [2] | binding [3] | binding [4] | binding [5] | binding [6] |
| --- | --- | --- | --- | --- | --- | --- |
| Cdc42 of SH-SY5Y cells (from UniProt P60953 1-191) | no binding | no binding | no binding | – | – | – |
| RhoGEF19 (WGEF), endogenous in SH-SY5Y cells (from UniProt Q8IW93 1-802) | – | – | – | – | binds | – |
